The results in this text go back to the supplement of paper PMC11417369.

± gives the standard deviation of the averaged measurements. The list shows a part of the results.

The subject of this test is PfAP2-I AP2 domain 3 (GST-tagged). The test can be described thus: gcPBM binding intensity (ln(normalized median fluorescence intensity)); higher = stronger DNA binding. Summed up: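 Binding intensity values are the highest Masliner-normalised natural-log median intensity among replicate spots of either probe orientation. The binding step lasted 1 h in 1× PBS with 1% milk, 0.2 mg/ml BSA, 0.5% salmon testes DNA and 0.03% Triton X-100, using GST-tagged P. falciparum DNA-binding domains expressed in E. coli on an Agilent 4 × 180k array of primer-extended double-stranded 36-bp intergenic genomic probes plus negative controls. Alexa488 anti-GST antibody and a 488 nm scan detected bound protein.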
With “GACATTGATACCAGTAGTACCTATAGATGTTTGTTT [XGTACX_site5736]”, the “gcPBM binding intensity (ln)” value is 7.84 ± 0.49.
Regarding “TTATGGAATAATCACGTACACACAAGAAAAAAAAAA [CACACA_site526]”, the “gcPBM binding intensity (ln)” value stood at 8.1 ± 0.57.
In the case of “ATTATATATAAGAAGAGTACTGAATATGTGCAATAT [XGTACX_site4471]”, the “gcPBM binding intensity (ln)” value came to 10.3 ± 0.4.
The same measure for “TTATAGAAAATGGAATAGAATGGAATGGAAGAAATA [CACACA_negctrl_site1086]”: 7.92 ± 0.73; for “TATATACACCCACATACACACAAATAAAAAAACACC [CACACA_site3414]”: 9.13 ± 0.092; for “ATGTTGCACAGTGGAAGAATTAAAAATAAATAAATA [XGTACX_negctrl_site581]”: 9.95 ± 0.32.
The same measure for “GTGGAACGTATATTTTCACACACTCTCAAAAGTACA [CACACA_site8722]”: 7.72 ± 0.57; for “AAATAATGTTTGAATTGTACACATATTTGTGTTTCT [XGTACX_site4603]”: 7.66 ± 0.47; for “ATGAACATATCAATTCTCAAAATAGGATGAGAGCAT [CACACA_negctrl_site230]”: 7.63 ± 0.61.
Take “AATATTATAAATGTCACACATATATTCAAATATATA [CACACA_site4736]”: the “gcPBM binding intensity (ln)” value came to 7.61 ± 0.38.
On to “AATTTTTGTATTTTTAGTACTTAATTTCAAAATAAC [XGTACX_site4234]”, for which the “gcPBM binding intensity (ln)” value amounted to 7.7 ± 0.52.
Turning to “GTGGAACATATGAACTCACACACATTTTCACTTAAA [CACACA_site3683]”, the “gcPBM binding intensity (ln)” value is 7.8 ± 0.57.
As for “ATATAAGGATTAATATGTACATATATATATATATTT [XGTACX_site1390]”, the “gcPBM binding intensity (ln)” value was found to be 7.83 ± 0.45.
Under “TTTGTATATTATTTTAGTACATAACATTGAAGATAT [XGTACX_site6680]” stands 7.83 ± 0.24.
Under “TATTTTGAAACTAAAAGACATAGAGAAAACAAAAAA [CACACA_negctrl_site1306]” stands 8 ± 0.79; under “TTTATTGACAATTTATGTACATATAATTGAAAAATA [XGTACX_site6634]”, 7.82 ± 0.21; under “GAATGGACGTTAGGGGGTACGTATAAAATTTATCAA [XGTACX_site683]”, 8.87 ± 0.24.
In the case of “TTTGTGATATTATATTGTACCCTATATTTATTATAA [XGTACX_site4240]”, the “gcPBM binding intensity (ln)” value amounted to 7.9 ± 0.47.
Under “ATTTGTTACGGACATGCATGCGAATCAGGGTATATA [TGCATGCA_site154]” stands 8.1 ± 0.76; under “TATAAAAAAAAAAAATATATATATATATAAATATAA [TGCATGCA_negctrl_site367]”, 7.28 ± 0.37; under “TAAGAAAAAAAAAAAAAAAAAAAAAAAAAAAAAAAA [CACACA_negctrl_site760]”, 8.33 ± 1.1.
Under “TAAAAATATTTTCATTGTACATATATATAAATATAT [XGTACX_site1123]” stands 7.59 ± 0.3.
As for “TCACCTATTTTTAACTGTACTGAAATGATATATATA [XGTACX_site1366]”, the “gcPBM binding intensity (ln)” value was 8.03 ± 0.47.
As for “TAATGAAATTGTAGTAGTACCTTCTTATAAATAAAA [XGTACX_site6747]”, the “gcPBM binding intensity (ln)” value was 7.55 ± 0.4.
In the case of “TTGAGGAAATAACAGTGTACAAACAAATTATTACCA [XGTACX_site7082]”, the “gcPBM binding intensity (ln)” value is 7.83 ± 0.49.
Under “TACATATATATATATATATATATATATATCATTATG [XGTACX_negctrl_site293]” stands 8.5 ± 0.44; under “GTTCAATTTTTAGGAAGTACAAAAAAAAAAAAGAAA [XGTACX_site7286]”, 8.12 ± 0.028; under “ATGGTACATACATACACACACACAAAAAAAAAAAAA [CACACA_site1578]”, 8.12 ± 0.52.
The same measure for “TATATTTGTATTGTTTGTACTTATATGAATTTATAT [XGTACX_site4228]”: 7.6 ± 0.42; for “TATATTAGTGTTGACACACACAAAAAAAAAAAAAAA [CACACA_site1396]”: 8.03 ± 0.61.
For the sequence “CAAACCTATATACAAACATGCAATCCACATATTGGT [TGCATGCA_site756]”, the “gcPBM binding intensity (ln)” value came to 7.62 ± 0.61.
On to “TTTTCCATAAGAATTACACACAGAAAGGATAAGTAT [CACACA_site105]”, for which the “gcPBM binding intensity (ln)” value stood at 8.04 ± 0.73.
Under “CTTATATTAATTATTACACACATATTTATAAATGCA [CACACA_site6501]” stands 8.07 ± 0.47; under “TATTACATACAATATTGTACATATCATATTTTGAAT [XGTACX_site2191]”, 7.8 ± 0.52.
Under ACGGAAAAAGAAAAGGTGCATATGGACACAATATAT stands 10.85 ± 0.099; under “ATAGAAATATTATATTGTACGAACAGTTATTAACAA [XGTACX_site2137]”, 7.83 ± 0.42.
The same measure for “ATTATTTGTTTAAATTCACACACGTATATATATTTA [CACACA_site3050]”: 7.9 ± 0.55; for “ACATGTAAATGGAAAAGTACTAATAACTTGTATTGG [XGTACX_site5181]”: 7.75 ± 0.43.
Regarding “ATATATAAATATATTACACACTTTTTCTTTTTTTTT [CACACA_site7332]”, the “gcPBM binding intensity (ln)” value came to 7.59 ± 0.71.
Consider “TTATTTTAATATAAAATACACACTACTATTATAAAT [CACACA_site1470]”, for which the “gcPBM binding intensity (ln)” value amounted to 7.74 ± 0.49.
The same measure for “TAATTATTAAAACATTGTACATTATTATAAACAATT [XGTACX_site4489]”: 7.55 ± 0.4; for “TATATATATATTATCACACACTCACGTTTGACAAAA [CACACA_site689]”: 9.04 ± 0.23; for “TTATTTATTTATTCATGTACGTGTATTTTTTAAAAA [XGTACX_site7915]”: 8.15 ± 0.53.
As to “TAATAAATACAAAAATGTACACACATATATATATTT [XGTACX_site7430]”, the “gcPBM binding intensity (ln)” value came to 7.67 ± 0.39.
In the case of “AGTGTCATATTAACACGTACATAATTATTGTAGAGA [XGTACX_site568]”, the “gcPBM binding intensity (ln)” value stood at 8.11 ± 0.44.
The same measure for “ATTGGGTACAAATACACACACATATATATATTAAGA [CACACA_site5330]”: 8.05 ± 0.33; for “AAAGAAAAATTAACATGTACAAAAATTACTTGTTCA [XGTACX_site6725]”: 7.25 ± 0.53; for “GTATATAAATATATATATATATATATATCTATATTT [CACACA_negctrl_site871]”: 7.82 ± 0.23.
Under “GTATTTTTACAAATTTGTACATATATATGAATATAC [XGTACX_site6717]” stands 8.21 ± 0.38; under “TCTGAAACAAGAAAAAGTACACAAATTACAAAACTA [XGTACX_site7641]”, 8.045 ± 0.007; under “AAAAAAAATTCACACTGTACAAAAGCATAAATAAAC [XGTACX_site5408]”, 8.21 ± 0.65.
With “ATATTTACCTTTGTATGTACATATATAAAATATATC [XGTACX_site6367]”, the “gcPBM binding intensity (ln)” value was determined as 8.16 ± 0.67.
With “TTTTGTAAAAAGAAAAATTAGAATATATCGTATATA [XGTACX_negctrl_site617]”, the “gcPBM binding intensity (ln)” value came out at 7.19 ± 0.45.
Under “TATATAATAAAAAAAAGTACTTGGACAATATTATTT [XGTACX_site2802]” stands 7.88 ± 0.51; under “TTAATTTACATGAACTGTACATAACATTTTTTTAAA [XGTACX_site4672]”, 7.58 ± 0.53.
For the sequence “ATCAAAATATTTATATGTACATATTAAAAATATAGA [XGTACX_site725]”, the “gcPBM binding intensity (ln)” value was 7.63 ± 0.31.
Turning to “ATCAACATCTAACATTGTACATGTGATGTGTAAAAG [XGTACX_site547]”, the “gcPBM binding intensity (ln)” value came out at 7.71 ± 0.52.
The same measure for “ATATTTGCCCAAGATAGTACATATATATATATATAT [XGTACX_site7756]”: 9.485 ± 0.049; for “AAATAGCCAAAAATCATGCACACCTAAAAAAAAAAA [CACACA_site2572]”: 8.74 ± 0.35.
The same measure for “TATATATATATATATTGTACATATATTATTATATAT [XGTACX_site7447]”: 9.25 ± 0.23; for “ATATTGGAGCACAACACACACAAGTATATATATGGA [CACACA_site1546]”: 8.39 ± 0.29.
Under “CATACATACAAACACACACACACACCGATATATATA [CACACA_site8952]” stands 8.22 ± 0.76; under “CACATACAGACATACACACACATATATATTAATATA [CACACA_site546]”, 8.11 ± 0.33.
On to “AATTCTCTTAATAAATAAACACAAATAAATAATAAA [GTGCAC_negctrl_site499]”, for which the “gcPBM binding intensity (ln)” value was found to be 7.63 ± 0.45.
The same measure for “TTAACATATTTGTTAGTGCATTTTGATATTACACAT [GTGCAC_site9978]”: 9.71 ± 0.13.
The same measure for “AAAAAAATTAAATGTACACACACCTTAAACAATGTC [CACACA_site1855]”: 7.81 ± 0.35.
Under “ATAAATAAATAAATAAATAAATAAATAAATATATAT [CACACA_negctrl_site1728]” stands 7.6 ± 0.45.
Regarding “ATTTATTTTATATGTTGTACAAACATTTTAAAACAT [XGTACX_site6919]”, the “gcPBM binding intensity (ln)” value was 7.79 ± 0.38.
The same measure for TCTTTTTCTTGACGAGTGCAAAAATTGTGTTTGAAA: 9.95 ± 0.33.
With “CTAATATCTGTATGCACACACAATAAATACATATTT [CACACA_site5797]”, the “gcPBM binding intensity (ln)” value worked out at 8.96 ± 0.028.
Under “TTTTTTTAAAGAATTATCATAAAATGATTGCATCAT [XGTACX_negctrl_site141]” stands 7.39 ± 0.46; under “AATGCCTTGTTGAGGTGTACTGAATGTTATTTTAAT [XGTACX_site3255]”, 7.75 ± 0.52.
The same measure for “AAGGAAATATAATATACACACATAAGTGTACTTATA [CACACA_site4030]”: 7.8 ± 0.092; for “TAATAAAGTGAATAATGTACATTTTATTTATTATAT [XGTACX_site6614]”: 7.68 ± 0.41.
Take “ATTATATATCCCTATTCACACATGTATTATATAAAT [CACACA_site5486]”: the “gcPBM binding intensity (ln)” value was determined as 8.29 ± 0.54.
Under “GAAAAATTAAAAATAACACACACATATATATATTTA [CACACA_site8896]” stands 7.56 ± 0.4; under “TCAGTAATACTTGAATGTACTTATATTGTTTGTTTG [XGTACX_site6449]”, 7.5 ± 0.47.
The same measure for “CCTATATTAAAACAAGCACACAATCGCATAATATCC [CACACA_site9052]”: 7.85 ± 0.79; for “ATATTTTATTTATATACACACACATATATATATTAT [CACACA_site8177]”: 8.06 ± 0.63; for “TTCTTTATATACAAACCAAAATATTATGTATAATAA [CACACA_negctrl_site15]”: 7.62 ± 0.33.
Under “CTTTATATAAAATAAAGTACATAAATTATGATATAT [XGTACX_site3699]” stands 7.78 ± 0.42; under “TAATTTTTTTTTATGATACACACTTGGATAATTAAA [CACACA_site562]”, 7.8 ± 0.11; under “TTATTATATATTTTATTTATTAATAGTATATATTAT [TGCATGCA_negctrl_site155]”, 7.22 ± 0.46.
For “ATACATATAATATATGCATGTACCAATCAAATATAT [TGCATGCA_site192]”, the “gcPBM binding intensity (ln)” value is 7.75 ± 0.5.
In the case of TTATTCTAGTAGTGTGTGCGCATGGACAATGCAATA, the “gcPBM binding intensity (ln)” value was found to be 8.66 ± 0.27.
Under “TATATATCGTTATATACACACATGTATATAAAAAAT [CACACA_site7501]” stands 7.8 ± 0.51; under “AAGAAAAAATAAAGCACACAAATATTTTAAAAACAC [CACACA_site3325]”, 9.67 ± 0.18.
Under “TTATTTATAATGTTGTGTACATATATGAATATACCA [XGTACX_site3111]” stands 7.67 ± 0.32.
